Measured values published in the supplement of paper PMC6531468.
Some of the results follow. Values come from read counts of a selection and are noisy. Each score is taken over the longer molecules that contain the sequence shown.

Tested on: IMP3 KH1-4
Experiment: 6-mer SELEX enrichment z-score vs GST control; IMP3 is the RNA-binding protein IGF2BP3; higher = more enriched by binding
Conditions: construct: KH1-4 (164-579); SELEX round: R4
Procedure: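 SELEX-seq with GST-tagged IMP3 KH1-4 (Pro164-Lys579) and an N40 RNA pool, round 4. 6-mer z-score of sequence-tag enrichment normalised to the corresponding GST SELEX round; RNA k-mers written as DNA (T for U).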

Chain of IMP3 KH1-4 (chain, as listed by the source): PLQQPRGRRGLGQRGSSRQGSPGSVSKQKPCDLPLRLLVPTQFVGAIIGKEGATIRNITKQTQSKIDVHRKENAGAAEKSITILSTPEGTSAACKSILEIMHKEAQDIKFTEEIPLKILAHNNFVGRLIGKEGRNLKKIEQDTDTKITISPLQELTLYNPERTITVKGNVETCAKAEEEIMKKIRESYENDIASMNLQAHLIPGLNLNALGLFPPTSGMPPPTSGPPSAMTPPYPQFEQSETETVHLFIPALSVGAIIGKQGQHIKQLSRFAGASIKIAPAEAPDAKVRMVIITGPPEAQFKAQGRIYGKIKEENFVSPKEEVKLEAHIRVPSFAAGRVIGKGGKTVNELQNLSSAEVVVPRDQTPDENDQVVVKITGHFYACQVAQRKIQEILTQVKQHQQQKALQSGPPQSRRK

| Sequence | 6-mer SELEX enrichment z-score |
| --- | --- |
| TCGCCA | 0.661 |
| GGTTCT | -0.064 |
| AACCGC | -0.542 |
| ACGAAG | -0.717 |
| GAACGC | -1.1 |
| AAGCCG | -0.804 |
| GTCGGC | 2.49 |
| CTATAC | 0.846 |
| AAGATT | 0.951 |
| CGCCCG | -0.947 |
| CCTTCC | 0.101 |
| CTCCCC | 0.038 |
| GGTTGA | -0.213 |
| TTTTTA | 0.92 |
| ATACTG | 0.824 |
| TCTACG | -0.283 |
| ACTTAG | -0.136 |
| CAGCCT | -0.406 |
| TGGCCT | -0.133 |
| GAAGCC | -0.887 |

| Sequence | 6-mer SELEX enrichment z-score |
| --- | --- |
| ACGACT | -0.327 |
| TAGAAG | 0.354 |
| GTCATC | 0.096 |
| AAGGCA | 1.22 |
| GCGCCG | -0.374 |
| CTGGGA | 0.049 |
| CAAAGT | -0.51 |
| CGCCTC | -0.943 |
| TAAACT | 0.568 |
| ATGGAA | 1.08 |
| TGGTGG | 0.615 |
| CTATAA | 1.18 |
| CGCATA | 0.659 |
| CGTCCG | -0.749 |
| GTTCGA | -0.709 |
| GAACAG | 0.478 |
| TCCTGT | 0.197 |
| AACTTC | 0.383 |
| GTCTGA | -0.444 |
| AAGCAA | -0.565 |

Tested on: IMP3 RRM1-2
Sequence (chain, as listed by the source): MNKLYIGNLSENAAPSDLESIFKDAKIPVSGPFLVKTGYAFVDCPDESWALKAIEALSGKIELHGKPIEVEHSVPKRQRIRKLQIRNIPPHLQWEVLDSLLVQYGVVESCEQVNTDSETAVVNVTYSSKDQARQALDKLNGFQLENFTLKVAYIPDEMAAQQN
Experiment: as above
Conditions: construct: RRM1-2 (1-163); SELEX round: R2
Procedure: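 SELEX-seq with GST-tagged IMP3 RRM1-2 (Met1-Asn163) and an N40 RNA pool, round 2. 6-mer enrichment z-score normalised to GST SELEX. RNA written as DNA (T = U).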

| Sequence | 6-mer SELEX enrichment z-score |
| --- | --- |
| TCGCCA | 0.124 |
| GGTTCT | 0.458 |
| AACCGC | -1.05 |
| ACGAAG | -1.41 |
| GAACGC | -1.03 |
| AAGCCG | -0.965 |
| GTCGGC | 0.75 |
| CTATAC | 0.103 |
| AAGATT | -0.782 |
| CGCCCG | -0.543 |
| CCTTCC | -0.111 |
| CTCCCC | -0.551 |
| GGTTGA | 0.033 |
| TTTTTA | 0.361 |
| ATACTG | -0.137 |
| TCTACG | 0.013 |
| ACTTAG | 0.114 |
| CAGCCT | 0.047 |
| TGGCCT | 0.09 |
| GAAGCC | -1.13 |

| Sequence | 6-mer SELEX enrichment z-score |
| --- | --- |
| ACGACT | -0.542 |
| TAGAAG | -0.535 |
| GTCATC | 0.801 |
| AAGGCA | 0.419 |
| GCGCCG | -0.096 |
| CTGGGA | -0.16 |
| CAAAGT | -0.459 |
| CGCCTC | -0.037 |
| TAAACT | -0.646 |
| ATGGAA | -0.67 |
| TGGTGG | 0.473 |
| CTATAA | -0.485 |
| CGCATA | 0.413 |
| CGTCCG | 0.056 |
| GTTCGA | -0.025 |
| GAACAG | -0.775 |
| TCCTGT | 0.148 |
| AACTTC | -0.043 |
| GTCTGA | -0.04 |
| AAGCAA | 0.128 |

Tested on: IMP3 KH1-2
Sequence (chain, as listed by the source): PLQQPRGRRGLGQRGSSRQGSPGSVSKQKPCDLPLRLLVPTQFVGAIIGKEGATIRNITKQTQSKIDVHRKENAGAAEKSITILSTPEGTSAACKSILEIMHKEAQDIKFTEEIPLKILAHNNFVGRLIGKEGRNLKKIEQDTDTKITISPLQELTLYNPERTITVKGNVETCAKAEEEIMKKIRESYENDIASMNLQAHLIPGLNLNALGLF
Experiment: as above
Conditions: construct: KH1-2 (164-376); SELEX round: R4
Procedure: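 SELEX-seq with GST-tagged IMP3 KH1-2 (Pro164-Phe376) and an N40 RNA pool, round 4 (stringent 300/600 mM KCl washes). 6-mer z-score of sequence-tag enrichment normalised to the corresponding GST SELEX round; RNA k-mers written as DNA (T for U).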

| Sequence | 6-mer SELEX enrichment z-score |
| --- | --- |
| TCGCCA | 0.454 |
| GGTTCT | 0.024 |
| AACCGC | 0.095 |
| ACGAAG | -0.786 |
| GAACGC | -0.956 |
| AAGCCG | -0.687 |
| GTCGGC | 2.18 |
| CTATAC | 0.799 |
| AAGATT | 0.655 |
| CGCCCG | -0.789 |
| CCTTCC | 0.211 |
| CTCCCC | 0.32 |
| GGTTGA | -0.099 |
| TTTTTA | 0.932 |
| ATACTG | 0.864 |
| TCTACG | -0.263 |
| ACTTAG | -0.144 |
| CAGCCT | -0.352 |
| TGGCCT | -0.091 |
| GAAGCC | -0.718 |

| Sequence | 6-mer SELEX enrichment z-score |
| --- | --- |
| ACGACT | -0.515 |
| TAGAAG | 0.191 |
| GTCATC | -0.091 |
| AAGGCA | 0.587 |
| GCGCCG | -0.165 |
| CTGGGA | 0.105 |
| CAAAGT | -0.759 |
| CGCCTC | -0.72 |
| TAAACT | 0.54 |
| ATGGAA | 0.567 |
| TGGTGG | 0.641 |
| CTATAA | 1.08 |
| CGCATA | 0.646 |
| CGTCCG | -0.522 |
| GTTCGA | -0.644 |
| GAACAG | 0.442 |
| TCCTGT | 0.129 |
| AACTTC | 0.558 |
| GTCTGA | -0.427 |
| AAGCAA | -0.543 |

Tested on: IMP3 KH3-4
Sequence (chain, as listed by the source): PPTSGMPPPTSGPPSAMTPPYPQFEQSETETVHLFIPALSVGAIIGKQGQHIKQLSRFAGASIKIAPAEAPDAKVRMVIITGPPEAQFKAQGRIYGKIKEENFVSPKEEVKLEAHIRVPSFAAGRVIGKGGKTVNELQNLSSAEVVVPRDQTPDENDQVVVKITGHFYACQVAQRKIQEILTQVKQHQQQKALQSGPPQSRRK
Experiment: as above
Conditions: construct: KH3-4 (377-579); SELEX round: R4
Procedure: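 SELEX-seq with GST-tagged IMP3 KH3-4 (Pro377-Lys579) and an N40 RNA pool, round 4. 6-mer z-score of sequence-tag enrichment normalised to the corresponding GST SELEX round; RNA k-mers written as DNA (T for U).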

| Sequence | 6-mer SELEX enrichment z-score |
| --- | --- |
| TCGCCA | 0.094 |
| GGTTCT | 0.177 |
| AACCGC | -1.04 |
| ACGAAG | -0.546 |
| GAACGC | -1.18 |
| AAGCCG | -0.842 |
| GTCGGC | 1.87 |
| CTATAC | 0.608 |
| AAGATT | 1.66 |
| CGCCCG | -1.31 |
| CCTTCC | -0.65 |
| CTCCCC | -1.01 |
| GGTTGA | -0.041 |
| TTTTTA | 1.74 |
| ATACTG | 0.867 |
| TCTACG | -0.274 |
| ACTTAG | 0.061 |
| CAGCCT | -0.625 |
| TGGCCT | -0.07 |
| GAAGCC | -1.06 |

| Sequence | 6-mer SELEX enrichment z-score |
| --- | --- |
| ACGACT | -0.76 |
| TAGAAG | 0.722 |
| GTCATC | -0.126 |
| AAGGCA | 1.38 |
| GCGCCG | -0.416 |
| CTGGGA | 0.089 |
| CAAAGT | -0.576 |
| CGCCTC | -0.954 |
| TAAACT | 0.897 |
| ATGGAA | 1.17 |
| TGGTGG | 0.589 |
| CTATAA | 1.52 |
| CGCATA | 0.464 |
| CGTCCG | -0.762 |
| GTTCGA | -0.54 |
| GAACAG | 0.391 |
| TCCTGT | -0.04 |
| AACTTC | 0.052 |
| GTCTGA | -0.327 |
| AAGCAA | -0.337 |
